# Test results published in the supplement of paper PMC3334620.
# Whole data set: some 33,000 sequences, median “E-score (-0.5 to 0.5)” near -0.016, cut for the highest 2% near 0.32. This is one part of the list.
# Target: T1, Stp1 (UniProt B3LFK1)
# T1 sequence: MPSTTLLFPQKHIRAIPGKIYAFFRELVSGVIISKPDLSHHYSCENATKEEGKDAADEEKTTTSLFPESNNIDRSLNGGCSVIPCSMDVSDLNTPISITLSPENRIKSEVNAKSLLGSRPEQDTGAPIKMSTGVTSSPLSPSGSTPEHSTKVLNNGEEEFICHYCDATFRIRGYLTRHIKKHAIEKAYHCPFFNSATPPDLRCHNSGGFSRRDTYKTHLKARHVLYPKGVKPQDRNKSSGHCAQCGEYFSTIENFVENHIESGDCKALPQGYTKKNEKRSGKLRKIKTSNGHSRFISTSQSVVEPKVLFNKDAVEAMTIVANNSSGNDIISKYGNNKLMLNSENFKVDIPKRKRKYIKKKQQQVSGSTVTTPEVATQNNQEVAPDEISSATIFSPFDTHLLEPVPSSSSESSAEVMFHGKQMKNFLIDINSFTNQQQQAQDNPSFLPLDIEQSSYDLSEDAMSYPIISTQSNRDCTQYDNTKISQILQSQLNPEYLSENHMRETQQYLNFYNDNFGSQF
# Assay: PBM E-score (8-mer binding enrichment) (E-score (-0.5 to 0.5)); higher = stronger / more preferred TF binding; most listed sequences are background and not binding sites
# Details: protein concentration: 200 nM; construct: GST-full length
# Procedure, shortened: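 Universal all-10-mer Agilent arrays, double-stranded by primer extension on fresh or once-stripped slides, were probed with about 100-200 nM GST-tagged yeast transcription factors made by PURExpress. Fluorescent anti-GST detected bound protein, and masliner normalised the scans. E-scores from the Universal PBM Analysis Suite were given to each ungapped eight-base word pooled with its reverse complement.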
row,Sequence,PBM E-score
1,GTAGAAAA,0.189
2,TGATCTAA,-0.174
3,AGGAGGCA,0.109
4,CGGATGTA,0.0738
5,AGGCTTCC,0.0665
6,CCCGTGAA,-0.0993
7,GAATCGCC,0.29
8,TTGGTAAA,0.203
9,ACAGACGG,0.061
10,AAATGGCC,0.0218
11,GCTGTGGA,-0.0422
12,ATGAGGCC,0.0892
13,ACTTACGG,0.0811
14,CTTGACTC,-0.246
15,GGTCTGAA,-0.0714
16,AGCCGATA,-0.15
17,CCATAGAA,0.155
18,CAAATTCC,0.0321
19,CACGGTTA,0.241
20,ACGGCGGA,0.314
21,AGCACGTC,-0.0395
22,AGTACCAA,0.0998
23,CCGGGCCC,-0.109
24,TGCGTTAA,0.104
25,CAAAGGGA,-0.111

row,Sequence,PBM E-score
1,ATACACAC,0.0549
2,GAACAAAC,0.196
3,AGTCGTGG,-0.227
4,GTATCACA,0.19
5,TTACAGAA,-0.0909
6,GGAATCGA,-0.192
7,AACATCAC,-0.0907
8,CTTGGCTC,-0.0825
9,AGCGGAGG,-0.0516
10,AAAGCTCT,-0.371
11,AACCTATC,-0.109
12,CTTACATA,0.2
13,CAATCGTC,0.063
14,CCGTCACA,-0.202
15,TACTTTCA,0.00121
16,ACGAAGGG,-0.0354
17,GGCGTTAC,0.265
18,ACCTTAGG,-0.179
19,ACGTAGGC,-0.149
20,AGATACCG,0.123
21,AATCTACA,0.156
22,AGTGACAC,0.141
23,CCCTACTC,0.0313
24,GAATCACA,-0.0331
25,AGCTTGAC,-0.16

row,Sequence,PBM E-score
1,CCCCCTTA,-0.35
2,GGGCCACA,0.0202
3,ATTCGCGC,0.221
4,CCGTCGTC,-0.0542
5,CCGTATCG,0.215
6,CCGCGCAG,0.221
7,CAGACGAG,-0.072
8,CGCTTAAC,0.12
9,CAAGTACG,-0.0705
10,ATCCTGCA,-0.159
11,AGTCCTCA,-0.0239
12,CGCAGACG,0.164
13,AGAAGCCC,-0.101
14,GGGCCCCA,-0.319
15,CATAGGTC,-0.12
16,GTGTTGAA,-0.113
17,AAGGTCCA,-0.213
18,GACCGATC,-0.164
19,ATTGAATG,0.0897
20,ACTATGCC,0.285
21,ATTACTCA,0.0321
22,CCAAATGC,-0.0633
23,AGTACTAT,0.029
24,ACAATGTC,-0.0146
25,AAAAGTGG,0.125

row,Sequence,PBM E-score
1,CCCTGCGG,-0.0552
2,AACACTCT,0.00778
3,AGCCAGTG,-0.177
4,ATCCGCCG,0.294
5,AGTTGTTA,0.0604
6,AAGCGTGT,-0.101
7,CGCTATAA,-0.0139
8,TCGGGTCA,-0.0927
9,TCTTAACA,0.0972
10,AAACGCTT,-0.0887
11,CACTTGAA,0.164
12,CGCATAGA,0.104
13,AATACATT,0.0399
14,CGAGACGC,0.0377
15,AGGAGCAT,0.0289
16,AGTTAACC,-0.1
17,AGATAAGA,0.0923
18,CTTACAGA,0.0714
19,AGCGCAGC,-0.112
20,CAATGCAG,0.12
21,CGTGACTA,-0.1
22,AATACCGA,-0.0374
23,ACTCTGAA,0.114
24,CTAATCGA,0.0651
25,CAGTCAAA,0.0898

row,Sequence,PBM E-score
1,ACAGGCAC,-0.047
2,ATAGAGAA,0.105
3,CCCGATGA,0.0203
4,TATGGCGA,0.0899
5,ATGATCTG,0.0371
6,AGGGACCT,-0.219
7,ACAACTGC,-0.0742
8,AAATACAT,-0.0457
9,ACATCAAT,0.115
10,CAAACCAC,0.108
11,GAAGTTAA,-0.0765
12,CCAAAGTA,-0.0727
13,AGGCTGAG,0.0428
14,CCGGGAGC,-0.31
15,CGACAAGC,-0.0737
16,CAACATCC,-0.053
17,CGCTGTGC,0.0982
18,GAAAAGGA,-0.0126
19,ATAGCCAG,-0.124
20,GGACAAAC,-0.0758
21,ATCAATGC,0.135
22,AACATCCA,-0.0261
23,AATAACAC,0.129
24,GACCAAGC,-0.0999
25,CCACCAAG,-0.24

row,Sequence,PBM E-score
1,AAACCCAG,-0.183
2,ACATCAAC,0.0681
3,ACGGGTCA,-0.225
4,ATGGAAAA,-0.0124
5,ACCTCCAA,-0.155
6,GAGCTAAA,-0.289
7,TCCTGCCA,-0.121
8,AAATTGAT,0.177
9,ATTTGTGA,0.0444
10,CCTGATCG,0.0158
11,ATCCCATC,-0.228
12,ATTTGGGA,-0.105
13,ACGTGCCT,0.278
14,ATCTTCGG,0.0436
15,GTTACAAC,0.156
16,AAACTAAT,0.204
17,AATCGAAC,-0.00853
18,AGCCTGCG,-0.245
19,GTCCCCAC,-0.31
20,GAGTGGTA,-0.089
21,ATGTCAAT,0.171
22,GTATCAGA,0.0916
23,GGACTGCA,-0.229
24,CAGTTGTC,-0.136
25,TATAGGAA,-0.0116

row,Sequence,PBM E-score
1,GACTCACC,-0.254
2,GCCACTCA,0.181
3,CTTCGAAC,0.115
4,CGGACCCC,-0.169
5,ACATCAGC,-0.00635
6,CTTGGGTA,0.0303
7,ATCGGCGG,0.262
8,GACTAGAA,-0.146
9,ATATTAGG,0.0795
10,ACGTTCAA,-0.0326
11,GGATAACA,0.017
12,AGCATGTC,-0.123
13,ATCGACAA,0.0613
14,ATTGCAAT,0.206
15,AGGATGGA,-0.172
16,AGTACCCC,-0.194
17,GTAGCTCA,-0.0794
18,TAACGACA,0.0893
19,CCCTAGAG,-0.0947
20,GCCTATCC,-0.0607
21,GATTCGGC,0.175
22,ATCAAAGA,0.0425
